Test results as given in PubChem BioAssay AID1745845 (National Center for Advancing Translational Sciences (NCATS), 2022).
Where “and” joins values, the source holds several entries; their conditions need not be identical. Equal entries are not always repeated. Out of some 360,000 compounds screened, about 2,600 (0.72%) were called active. This list was built around the results that the source calls inconclusive (neither active nor inactive); the mix of calls is not that of the screen. Calls come from the whole dose curve; as a rule, active = well fitted inhibition curve with a large enough effect; inconclusive = small, poorly fitted or top-dose-only effect; inactive = no such curve, though single readings can be large or run the other way. A potency beside an inconclusive call is a rough fit, not a confirmed value.

Assay: Primary qHTS for Inhibitors of ATXN expression; note: nearly all actives have a fitted effect of over 55% in size
Details: HEK-293 ATXN2-luciferase reporter, luminescence, 24 h; activity change, negative = inhibition: at 57 µM (top of the series)
Outline: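 qHTS (up to 57 uM final) was run with 24 h compound exposure of reporter cells at 37 °C. Each well was multiplexed: SteadyGlo luminescence measured ATXN2-luciferase expression after a fluorogenic Gly-Phe-AFC viability readout (25 uM final).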
% is set by controls: 0 for no effect and ±100 for the full control effect; potency is the fitted concentration of half-maximal effect; tags give direction and shape of the fitted curve.

| SMILES | Potency | activity change, negative = inhibition |
| --- | --- | --- |
| O=C1OCC2=C1C(c1ccc3c(c1)OCO3)Sc1ccccc1N2 (stereo not given) | inactive | – |
| CCn1nc(C)c(CNC(=O)c2cc(COc3ccc(C)nc3)on2)c1C | inactive | – |
| O=C(CCc1c[nH]c2ccccc12)N1CCN(S(=O)(=O)c2ccccc2)CC1 | inactive | – |
| O=C(NCc1nc2ccccc2[nH]1)c1cccc(Cl)c1 | inactive | – |
| CCc1cc(C(=O)c2ccc(C)cc2)c(NC(=O)CCl)s1 | inconclusive: 31.6 µM [inhibitor, single point] | – |
| O=C(CCc1ccccc1)NNC(=O)c1cc(Cl)ccc1O | inconclusive: 39.8 µM [inhibitor, single point] | – |
| O=C(CCN1C(=O)c2ccccc2C1=O)NC(=S)Nc1ccccc1 | inactive | – |
| C=CCC[C@H](Cc1ccc(F)cc1)C(=O)OC[C@@H](NC(=O)[C@@H](CC=C)CC(=O)N(CCO)Cc1ccccc1)C(C)(C)C | inconclusive: 28.2 µM [inhibitor, partial curve] | – |
| COc1cc2ncnc(-n3nc(-c4ccccn4)nc3N)c2cc1OC | inconclusive: 4.85 µM [inhibitor, partial curve, poor fit] | – |
| CCOC(=O)C1CCCN(C(=O)c2ccc3c(c2)N(Cc2ccc(Cl)cc2)C(=O)c2ccccc2S3=O)C1 (stereo not given) | inconclusive: 35.5 µM [inhibitor, single point] | – |
| CCC(C)NCCOCCOc1cc(C)c(Cl)c(C)c1 (stereo not given) | inconclusive: 23.8 µM [inhibitor, partial curve, poor fit] | – |
| O=C(Oc1c(CN2CCOCC2)cc(Cl)c2cccnc12)c1ccc(F)cc1 | inconclusive: 17.8 µM [inhibitor, partial curve, poor fit] | – |
| Cc1ccc(C)c(NC(=O)c2cc(S(=O)(=O)NCCc3ccccc3)ccc2F)c1 | inconclusive: 39.8 µM [inhibitor, single point] | – |
| CCOc1cc(N2CCOCC2)c(OCC)cc1NC(=O)COC(=O)c1cc(C)oc1C | inconclusive: 14.1 µM [inhibitor, partial curve, poor fit] | – |
| CCN(CC)CCNC(=O)c1ccc(NC(=O)c2ccc(C(=O)c3ccccc3)cc2)cc1 | inconclusive: 3.98 µM [inhibitor, full curve, poor fit] | – |
| O=C(CCl)Nc1c2c(nn1-c1ccccc1)CSC2 | inconclusive: 39.8 µM [inhibitor, single point] | – |
| O=C(CCCc1ccccc1)Nc1cccnc1Cl | inactive | – |
| O=C(O)c1ccc(CN2C(=O)c3cccc4c([N+](=O)[O-])ccc(c34)C2=O)cc1 | inconclusive: 22.4 µM [inhibitor, single point] | – |
| c1ccc(Cn2nnc(CNc3ccccc3)c2-c2c(CNc3ccccc3)nnn2Cc2ccccc2)cc1 | inconclusive: 15.8 µM [inhibitor, partial curve, poor fit] | – |
| CCCCCCCn1c2c(c(=N)c3c1CCC3)CCCC2 | active: 1.89 µM | – |
| COc1cc(NS(=O)(=O)c2ccc3[nH]c(=O)[nH]c3c2)cc(OC)c1 | – | inconclusive: -42.6% [inhibitor] |
| CCc1nc2c(OCc3ccc(Cl)cc3Cl)cccn2c1N(C=O)Cc1ccc(OC)cc1 | inconclusive: 25.1 µM [inhibitor, single point] | – |

| SMILES | Potency | activity change, negative = inhibition |
| --- | --- | --- |
| Cc1ccc(NC2=C(N3CCOCC3)C(=O)c3ccccc3C2=O)cc1 | inconclusive: 39.8 µM [inhibitor, single point] | – |
| COc1ccccc1CNC(=O)COC(=O)C1CCN(S(=O)(=O)c2ccc(C)c(C)c2)CC1 | inactive | – |
| CC(C)(C)c1ccc(OCCCCCCN2CCNCC2)cc1 | inconclusive: 25.1 µM [inhibitor, partial curve] | – |
| Cc1cccc(C)c1NC(=O)CN(C)C(=O)c1cccc(S(=O)(=O)N2CCN(c3ccccc3)CC2)c1 | inactive | – |
| O=S(=O)(c1ccccc1)N1CCC(O)(CSc2ccc(F)cc2)CC1 | inconclusive: 10.6 µM [inhibitor, partial curve, poor fit] | – |
| CCN(N=O)[C@@H](Cc1ccccc1)CN(N=O)[C@@H](Cc1ccccc1)CN(C)N=O | inactive | – |
| Cc1ccc(OC(=O)c2oc3ccc(F)cc3c2C)c(C)c1 | inconclusive: 8.91 µM [inhibitor, partial curve] | – |
| COc1cc(NC(=O)Cn2nc(C(F)(F)F)c(Br)c2C)cc([N+](=O)[O-])c1 | inconclusive: 22.4 µM [inhibitor, partial curve, poor fit] | – |
| COc1ccc(CCNc2oc(COc3ccccc3Cl)nc2C#N)cc1OC | inconclusive: 39.8 µM [inhibitor, single point] | – |
| COc1ccc(F)cc1S(=O)(=O)n1cnc2ccccc21 | inactive | – |
| O=C(Cn1sc2ccccc2c1=O)NC12CC3CC(CC(C3)C1)C2 | inactive | – |
| CC1CCC(C(C)C)C(OC(=O)Cn2c(-c3ccccc3)[n+](C)c3ccccc32)C1 (stereo not given) | inconclusive: 28.2 µM [inhibitor, single point] and inconclusive: 11.2 µM [inhibitor, partial curve] | – |
| CCCOc1ccc(C2C(=O)N(C3CCCCC3)CC(=O)N2CCc2ccccc2)cc1OC (stereo not given) | inactive | – |
| S=C(NCc1ccco1)Nc1ccccc1 | inactive | – |
| CCc1ccc(NC(=O)c2ccc3c(=O)n4nc(Nc5ccccc5C)sc4nc3c2)cc1 | inactive | – |
| COc1ccc2[nH]c(C)c(CCN(Cc3cccs3)C(=S)Nc3ccc(F)cc3)c2c1 | inconclusive: 28.2 µM [inhibitor, partial curve] | – |
| CCOC(=O)c1c(C)oc2nc(C)nc(N(CC(C)C)CC(C)C)c12 | inconclusive: 22.4 µM [inhibitor, partial curve, poor fit] | – |
| CCOn1c(=O)c(-c2cccc3ccccc23)[n+]([O-])c2ccccc21 | inconclusive: 0.708 µM [inhibitor, full curve, poor fit] | – |
| O=C1C(Cl)=C(NS(=O)(=O)c2ccc([N+](=O)[O-])cc2)C(=O)c2ccccc21 | active: 17.8 µM | – |
| CCN1CCN(C(c2ccc(C(F)(F)F)cc2)c2ccc3cccnc3c2O)CC1 (stereo not given) | inconclusive: 37.7 µM [inhibitor, single point] | – |
| CCc1cc2c(=O)[nH]c(-c3ccccn3)nc2s1 | inconclusive: 5.62 µM [inhibitor, full curve, poor fit] | – |
| Cc1c(/C(O)=C2/C(=O)C(=O)N(CCN3CCOCC3)C2c2ccccn2)cnn1-c1ccccc1 (stereo not given) | inconclusive: 0.752 µM [inhibitor, full curve] | – |

| SMILES | Potency | activity change, negative = inhibition |
| --- | --- | --- |
| CCOC(=O)c1ccc(NC(=O)c2nc[nH]c2C(=O)NCCCCCNC(=O)OC(C)(C)C)cc1 | inconclusive: 39.8 µM [inhibitor, single point] | – |
| Cn1nnnc1Sc1ncnc2scc(-c3cccc(Br)c3)c12 | active: 8.91 µM | – |
| CC(=O)N1CCN(c2ccc(NCc3ccc(-c4cccc(Cl)c4)o3)cc2)CC1 | inconclusive: 28.2 µM [inhibitor, partial curve, poor fit] | – |
| Cc1ccc(C(=O)Nc2ncc3c(Cl)cccc3n2)cc1 | inconclusive: 14.1 µM [inhibitor, single point] | – |
| CN(CCCNC(=O)c1ccc(/C=N/O)nc1)CCCN(C)Cc1ccccc1 | inconclusive: 39.8 µM [inhibitor, single point] | – |
| CCN(C1CCCCC1)S(=O)(=O)CCNC(=O)c1ccccc1 | inactive | – |
| CCOc1cccc(-c2nnc3n2N=C(c2cc(OC)ccc2OC)CS3)c1 | inconclusive: 28.2 µM [inhibitor, single point] | – |
| Cc1ccc(-n2nc3c(N4CCC(C(=O)NCCc5cccs5)CC4)nnc(C)c3c2C)cc1 | inconclusive: 22.4 µM [inhibitor, partial curve, poor fit] | – |
| C#CCn1c(S(=O)(=O)Cc2ccc(C)cc2)nc(-c2ccccc2)c1-c1ccccc1 | inactive | – |
| O=c1oc2cc(O)ccc2s1 | inconclusive: 24.3 µM [inhibitor, partial curve, poor fit] and inconclusive: 12.6 µM [inhibitor, partial curve, poor fit] | – |
| Cc1ccc2c(n1)sc1c(=O)n(-c3cccc(C(F)(F)F)c3)nnc12 | inactive | – |
| CC(C)=C[C@@H]1C[C@H](C)[C@H]2CC[C@H](C)c3c(O[C@@H]4O[C@@H](C)[C@@H](O)[C@@H](O)[C@@H]4O)c(O)c(C)c1c32 | inconclusive: 28.2 µM [inhibitor, single point] | – |
| Cn1nccc1C(=O)N/N=C/c1c(O)ccc2ccccc12 | inconclusive: 1 µM [inhibitor, full curve] | – |
| COc1ccccc1C(NC(=O)C1CCN(CCOc2ccc(Cl)cc2Cl)CC1)c1ccccn1 (stereo not given) | active: 31.6 µM | – |
| COc1ccc(C(=O)/C=C/c2cccc(OCc3ccccc3)c2)cc1CSCC(=O)O | inconclusive: 17.8 µM [inhibitor, partial curve] | – |
| Cc1ccc(C(=O)N/N=C\c2ccc(-c3ccc(Cl)c(Cl)c3)o2)cn1 | inconclusive: 39.8 µM [inhibitor, single point] | – |
| Cc1c(NS(=O)(=O)c2ccc(N(C)C3CCCCC3)c([N+](=O)[O-])c2)c(=O)n(-c2ccccc2)n1C | inactive | – |
| COCCCNc1ccn2nc(-c3ccc(OCCN4CCOCC4)cc3)cc2n1 | inactive | – |
| Cc1ccc(C2(CCNCc3ccc(N(C)C)cc3)CCOC(C(C)C)C2)cc1 (stereo not given) | inconclusive: 37.7 µM [inhibitor, single point] | – |
| COCCCNC(=S)Nc1cc(C)c(C)cc1C | inactive | – |
| O=c1[nH]c2ccccc2cc1CN(Cc1cccnc1)S(=O)(=O)c1ccc(Cl)cc1 | inconclusive: 28.2 µM [inhibitor, single point] | – |
